Data reported in publication PMC4336329 (PLoS ONE, 2015).
In all, about 310,000 compounds went through this assay and about 2,200 (0.71%) showed an effect of 50% or more. The effect is printed as a negative number. This is one part of the list.

Target: human ether-à-go-go-related gene (hERG) potassium channel (human, UniProt Q12809)
Assay: primary screen, population patch clamp on CHO cells stably expressing hERG

human ether-à-go-go-related gene (hERG) potassium channel, sequence (Q12809 whole entry, looked up): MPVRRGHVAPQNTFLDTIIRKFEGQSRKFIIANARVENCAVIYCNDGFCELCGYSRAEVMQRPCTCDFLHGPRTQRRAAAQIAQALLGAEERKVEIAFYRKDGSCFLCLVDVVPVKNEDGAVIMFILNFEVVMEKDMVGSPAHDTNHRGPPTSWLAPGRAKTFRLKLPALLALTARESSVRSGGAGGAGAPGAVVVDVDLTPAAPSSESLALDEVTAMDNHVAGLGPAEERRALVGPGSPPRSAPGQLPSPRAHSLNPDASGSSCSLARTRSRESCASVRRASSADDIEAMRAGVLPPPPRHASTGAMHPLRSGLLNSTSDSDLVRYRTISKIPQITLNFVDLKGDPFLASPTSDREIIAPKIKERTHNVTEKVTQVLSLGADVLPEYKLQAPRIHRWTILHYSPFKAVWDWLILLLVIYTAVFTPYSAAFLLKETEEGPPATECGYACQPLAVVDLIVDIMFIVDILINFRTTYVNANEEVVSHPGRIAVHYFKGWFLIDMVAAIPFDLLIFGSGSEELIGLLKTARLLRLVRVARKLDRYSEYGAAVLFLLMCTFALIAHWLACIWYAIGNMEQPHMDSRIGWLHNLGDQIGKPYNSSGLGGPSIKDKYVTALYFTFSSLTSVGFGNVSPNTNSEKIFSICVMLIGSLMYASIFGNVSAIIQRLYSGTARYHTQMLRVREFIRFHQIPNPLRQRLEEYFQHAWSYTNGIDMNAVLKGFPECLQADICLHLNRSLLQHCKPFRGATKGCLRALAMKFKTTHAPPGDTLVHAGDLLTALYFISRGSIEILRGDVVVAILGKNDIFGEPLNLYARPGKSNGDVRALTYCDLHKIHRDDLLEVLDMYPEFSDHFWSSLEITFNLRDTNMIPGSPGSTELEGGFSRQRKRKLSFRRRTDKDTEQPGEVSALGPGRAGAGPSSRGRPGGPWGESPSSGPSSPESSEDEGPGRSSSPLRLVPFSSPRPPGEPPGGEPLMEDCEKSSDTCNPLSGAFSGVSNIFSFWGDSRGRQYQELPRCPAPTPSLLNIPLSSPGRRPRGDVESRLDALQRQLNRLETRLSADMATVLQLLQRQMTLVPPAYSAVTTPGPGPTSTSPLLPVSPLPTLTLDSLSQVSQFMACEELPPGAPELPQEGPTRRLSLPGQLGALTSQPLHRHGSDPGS

First: CCC(NC(=O)Cc1c(C)c2ccc(OC)c(C)c2oc1=O)C(=O)NC(Cc1ccc(Cl)cc1)C(=O)O (stereo not shown)
Second: Cc1ccc(C(=O)Nc2ccccc2C(=O)NC(C(=O)O)C(C)C)cc1 (stereo not shown)
The “hERG current change (%, negative = inhibition) at 1uM” value of the first is lower: 0.501% for the first, 1.83% for the second.

Going from `Cc1cccc(C(=O)NC(=S)Nc2ccc(N3CCOCC3)cc2)c1` to `Cc1cccc(OC(=O)N2CCOCC2)c1`, the “hERG current change (%, negative = inhibition) at 1uM” value falls from 12.1% to 10.2%.

Going from `COC(=O)[C@@]1(Cc2ccc(F)cc2)[C@H]2c3cc(C(=O)N(C)C)n(Cc4nc5ccccc5[nH]4)c3C[C@H]2CN1C(=O)c1ccccc1` to `Cc1ccccc1C(=O)N1CC(=O)Nc2ccc(F)cc2C1c1ccccc1` (stereo not shown), the “hERG current change (%, negative = inhibition) at 1uM” value falls from 15.7% to 6.24%.

Going from `Cc1ccc2c(cnn2C(=O)CCC(=O)NC2CCCC2)c1` to `COC(=O)c1cn(CC(=O)NC2CCCCC2)c2ccccc12`, the “hERG current change (%, negative = inhibition) at 1uM” value falls from 6.38% to 3.51%.

Compared with `Cc1cccc(N2CC(C(=O)Nc3nnc(SCC(=O)Nc4nccs4)s3)CC2=O)c1` (stereo not shown), `CSc1nc2ccc(NC(=O)C3CC(=O)N(Cc4ccccc4)C3)cc2s1` (stereo not shown) is higher in “hERG current change (%, negative = inhibition) at 1uM” value: 0.566% for the first, 1.69% for the second.

First: Cc1cc(-c2nnc(SCC(=O)Nc3ccccc3Cl)n2C)no1
Second: Cc1[nH]c(SCC(=O)Nc2cc(S(C)(=O)=O)ccc2Cl)nc1Cc1ccccc1
The “hERG current change (%, negative = inhibition) at 1uM” value of the first is higher: 6.56% for the first, 5.82% for the second.

Compared with `O=C(Nc1cccc(Cl)c1)Nc1ccc2c(c1)OCO2`, `COc1ccc(CC(=O)N/N=C(\C)CC(=O)Nc2ccc3c(c2)OCCO3)cc1OC` is lower in “hERG current change (%, negative = inhibition) at 1uM” value: 9.77% for the first, -1.37% for the second.

Compared with `CC1CCCC(NC(=O)CNC(=S)N2CC3CC(C2)c2cccc(=O)n2C3)C1C` (stereo not shown), `CC(CN1C(C)CCCC1C)OC(=O)c1cccc(Br)c1.Cl` (stereo not shown) is lower in “hERG current change (%, negative = inhibition) at 1uM” value: 23.5% for the first, 5.84% for the second.

Compared with `CC(C)(C)c1ccc(C(=O)NC(=S)Nc2sc3c(c2C#N)CCC3)cc1`, `COCCNC(=O)c1ccc(NS(=O)(=O)c2cc(C)ccc2C)cc1` is lower in “hERG current change (%, negative = inhibition) at 1uM” value: 7.77% for the first, 0.838% for the second.

Compared with `Cc1cc(Nc2ncc(Cl)cc2Cl)n(-c2ccccc2C)n1`, `Cc1ccccc1-c1nc2cc(Cl)ccc2c(=O)o1` is higher in “hERG current change (%, negative = inhibition) at 1uM” value: -7.76% for the first, 12.1% for the second.

Going from `CN(C)C(CN=C1NS(=O)(=O)c2ccccc21)c1ccco1` (stereo not shown) to `O=C(Nc1ccccc1C(=O)N/N=C/c1ccco1)c1ccc(F)cc1`, the “hERG current change (%, negative = inhibition) at 1uM” value falls from 6.56% to -8.11%.

Going from `N#Cc1c(N2CCCC2)nsc1-c1ccccc1` to `Cc1cc(N2CCN(c3ccccc3)CC2)n2ncnc2n1`, the “hERG current change (%, negative = inhibition) at 1uM” value falls from 16% to -7.73%.

Compared with `O=C1C(=C(c2ccccc2)c2ccccc2)Nc2ccccc21`, `Cc1cc(-c2ccccc2)[nH]c(=O)c1S(=O)(=O)c1ccc(Cl)cc1` is higher in “hERG current change (%, negative = inhibition) at 1uM” value: 11% for the first, 14.9% for the second.

Going from `Cc1cc(C)n2cc(-c3ccc(Cl)cc3)c(C(=O)O)c2n1` to `O=C(O)c1cnn(-c2nc(-c3ccc(F)cc3)cs2)c1C(F)(F)F`, the “hERG current change (%, negative = inhibition) at 1uM” value rises from -13.7% to 3.08%.

First: c1ccc(-c2noc(CC3CCCCC3)n2)nc1
Second: C=CCn1c(SCC(=O)NC2CCCC2)nnc1-c1ccccn1
The “hERG current change (%, negative = inhibition) at 1uM” value of the first is lower: 5.51% for the first, 11.6% for the second.

Going from `CC1Cc2ccccc2N1CC(=O)Nc1ccc(S(N)(=O)=O)cc1` (stereo not shown) to `C=CCN1C(=O)C(CC(=O)Nc2ccccc2)SC1=Nc1ccc(S(N)(=O)=O)cc1` (stereo not shown), the “hERG current change (%, negative = inhibition) at 1uM” value falls from 9.52% to 6.76%.

First: Cc1cc(C)n(C(=O)Cn2nc(C(F)F)cc2C)n1
Second: Cc1ccc(S(=O)(=O)NCC(C)n2nc(C)cc2C)cc1 (stereo not shown)
The “hERG current change (%, negative = inhibition) at 1uM” value of the first is higher: 19.9% for the first, 16.9% for the second.

First: O=C1CC(=O)Nc2cc(S(=O)(=O)Nc3ccc(F)cc3Cl)ccc2N1
Second: CCC(=O)N1CCc2cc(S(=O)(=O)NCCC(=O)NCc3ccccc3Cl)ccc21
The “hERG current change (%, negative = inhibition) at 1uM” value of the first is lower: -1.42% for the first, 6.65% for the second.

Going from `CCCc1cc(C(=O)NNC(=S)NCC2CCCO2)cs1` (stereo not shown) to `Cc1cccc(CSCc2ccc(C(=O)NCC3CCCO3)o2)c1` (stereo not shown), the “hERG current change (%, negative = inhibition) at 1uM” value falls from 7.68% to 1.84%.

Going from `CC(NC(=O)c1ccccc1SCC(=O)N1CCCC1)c1ccc(F)cc1` (stereo not shown) to `O=C(NCC(=O)N1CCN(S(=O)(=O)c2cccc(F)c2)CC1)c1ccc(Br)o1`, the “hERG current change (%, negative = inhibition) at 1uM” value falls from 13% to -6.98%.

Compared with `Clc1ccccc1COc1ccccc1-c1nnco1`, `O=C(COc1cccc2ccccc12)N/N=C/c1ccncc1` is lower in “hERG current change (%, negative = inhibition) at 1uM” value: 7.92% for the first, 0.844% for the second.

Compared with `Cn1cccc1/C=N/NC(=O)CSc1nc2ccccc2[nH]1`, `O=C(CCSc1ccccc1)Nc1nc2c(s1)CCCC2` is lower in “hERG current change (%, negative = inhibition) at 1uM” value: 12.4% for the first, 4.98% for the second.

First: CCOc1ccccc1NC(=S)N1CCCCCC1
Second: COc1ccccc1N1CCN(C2CCCN(C(=O)Cn3cccn3)C2)CC1 (stereo not shown)
The “hERG current change (%, negative = inhibition) at 1uM” value of the first is higher: 12.3% for the first, -1.51% for the second.

First: Cc1cccc2c3c([nH]c12)CCNC3.Cl
Second: O=C1CN2CCC1C/C2=C\c1ccnc2c(Cl)cccc12 (stereo not shown)
The “hERG current change (%, negative = inhibition) at 1uM” value of the first is higher: 15.9% for the first, 3.27% for the second.

Compared with `Cc1ccc(OCC(=O)Nc2c[nH]c(=O)[nH]c2=O)cc1C`, `Cc1cccc(NC(=O)CS(=O)(=O)c2c[nH]c3ccccc23)c1C` is lower in “hERG current change (%, negative = inhibition) at 1uM” value: 19.9% for the first, 3.94% for the second.

First: COc1ccccc1-n1cnnc1SCC(=O)N1CCOCC1
Second: COCCn1nnnc1C(c1ccccc1)N1CCN(Cc2ccc3c(c2)OCO3)CC1.Cl (stereo not shown)
The “hERG current change (%, negative = inhibition) at 1uM” value of the first is higher: 6.27% for the first, 3.09% for the second.

Compared with `Nc1cc(=O)[nH]c(SCC(=O)Nc2cc(S(=O)(=O)N3CCCCC3)ccc2Cl)n1`, `CCOC(=O)C1CCN(C(=O)c2oc3ccc(S(=O)(=O)N4CCCCCC4)cc3c2C)CC1` is lower in “hERG current change (%, negative = inhibition) at 1uM” value: 17.1% for the first, 4.05% for the second.

Going from `CC(=O)NCCC1CCCCN1Cc1nc(Cc2cccc(C(F)(F)F)c2)no1` (stereo not shown) to `O=C(Cc1cccc(C(F)(F)F)c1)NCc1cccnc1`, the “hERG current change (%, negative = inhibition) at 1uM” value falls from 26% to 8.35%.

First: COc1cc(NC(=O)CSc2nnnn2Cc2ccc3c(c2)OCO3)cc(OC)c1
Second: COc1cc(C(=O)NCc2nnc(SCC(=O)c3ccccc3)o2)cc(OC)c1OC
The “hERG current change (%, negative = inhibition) at 1uM” value of the first is lower: 7.26% for the first, 7.69% for the second.

First: CCOC(=O)c1c(NC(=O)CSc2nnc(-c3ccco3)o2)sc(C(C)=O)c1C
Second: CCOC(=O)c1c(NC(=O)COC(=O)c2ccc(C)s2)sc2c1CC(C)(C)NC2(C)C
The “hERG current change (%, negative = inhibition) at 1uM” value of the first is higher: 3.75% for the first, -9.63% for the second.

Compared with `CC(C)CN1C=C2C(=O)C(C)(OC(=O)C3CCCC3)C(=O)C=C2C=C1c1ccsc1` (stereo not shown), `O=C(NC1CCCCC1)C(c1ccccc1)N(Cc1cccnc1)C(=O)c1csnn1` (stereo not shown) is lower in “hERG current change (%, negative = inhibition) at 1uM” value: 16.3% for the first, 11.9% for the second.

Going from `Cc1nc(SCC(=O)NC(=O)NCCC(C)C)c2c(-c3cccs3)csc2n1` to `COc1ccc(C(=O)Nn2c(SCC(=O)c3ccc(Cl)cc3)nc3ccccc3c2=O)cc1`, the “hERG current change (%, negative = inhibition) at 1uM” value falls from 19.7% to 6.84%.

First: Cc1ccc(CCN2CC(C(=O)NCCCN3CCCCC3)CC2=O)cc1 (stereo not shown)
Second: COc1ccc(CCN2CC(C(=O)N3CCSCC3)CCC2=O)cc1 (stereo not shown)
The “hERG current change (%, negative = inhibition) at 1uM” value of the first is higher: 4.02% for the first, -1.17% for the second.

Going from `COc1nc(-c2ccccc2)cc(-c2ccc(OC)c(OC)c2)n1` to `CN(C)C(CNC(=O)/C=C/c1cccc(Cl)c1)c1ccccc1` (stereo not shown), the “hERG current change (%, negative = inhibition) at 1uM” value rises from -3.22% to 2.79%.

Compared with `CCC(CO)NCc1ccc(OC2CCCC2)cc1.Cl` (stereo not shown), `Cc1ccc(SCC(=O)NN=C2CCN(C)CC2)cc1` is higher in “hERG current change (%, negative = inhibition) at 1uM” value: -5.95% for the first, 13.8% for the second.

First: CCOC(=O)c1c(-n2c(C)cc(C=O)c2C)sc2c1CCCC2
Second: COC(=O)c1cc(S(=O)(=O)NCCN2CCOCC2)cn1C
The “hERG current change (%, negative = inhibition) at 1uM” value of the first is lower: 2.14% for the first, 8.56% for the second.

Compared with `O=C(Nc1cc(C(F)(F)F)ccc1N1CCOCC1)c1cnccn1`, `Cc1ccc(F)cc1NC(=O)N1CCCN(c2ccc(C(F)(F)F)cn2)CC1` is lower in “hERG current change (%, negative = inhibition) at 1uM” value: 4.61% for the first, -2.18% for the second.

Going from `Cc1cccc(N2C(=O)NC(=O)/C(=C/c3ccc(-c4ccc(C(=O)O)c(Cl)c4)o3)C2=O)c1` to `O=C(CSc1nnc(-c2ccccc2)n1-c1ccc(Cl)cc1)NC1CCS(=O)(=O)C1` (stereo not shown), the “hERG current change (%, negative = inhibition) at 1uM” value falls from 14.9% to 10.8%.

Going from `N#Cc1ccc(S(=O)(=O)N2CCC(C(=O)N3CCN(Cc4ccc5c(c4)OCO5)CC3)CC2)cc1` to `Cc1ccccc1S(=O)(=O)Cc1ccc(C(=O)N2CC(C)CC(C)C2)o1` (stereo not shown), the “hERG current change (%, negative = inhibition) at 1uM” value rises from -37.5% to 1.98%.

Compared with `CC1(C)CN2C(=S)N(c3ccccc3)C(c3ccccc3)N2C1` (stereo not shown), `CCN(CC)c1ccc(C(=S)N2CCN(c3ccccc3)CC2)cc1` is lower in “hERG current change (%, negative = inhibition) at 1uM” value: 6.16% for the first, 4.26% for the second.

Compared with `COc1cccc(/C=N/Nc2nc(N3CCCC3)nc(N3CCCC3)n2)c1O`, `C[C@H](NC(=O)c1nc[nH]c1C(=O)N1CCc2ccccc2C1)C(=O)OCc1ccccc1` is higher in “hERG current change (%, negative = inhibition) at 1uM” value: 9.69% for the first, 12.5% for the second.

First: Cc1ccc(C(=O)NCC(=O)OCC(=O)Nc2ncc(C(F)(F)F)cc2Cl)cc1
Second: COc1cccc(CN(C)CC(O)COc2cc(Cl)ccc2Cl)c1.O=C(O)C(=O)O (stereo not shown)
The “hERG current change (%, negative = inhibition) at 1uM” value of the first is higher: 8.47% for the first, 6.33% for the second.

First: C=CCNCCOCCOc1ccc(C)cc1[N+](=O)[O-]
Second: N/C(=N\OCC(=O)Nc1ccccc1)c1nonc1N
The “hERG current change (%, negative = inhibition) at 1uM” value of the first is lower: 9.08% for the first, 14.7% for the second.

First: COc1ccc(C2(c3ccc(OC)cc3)NC(=O)N(CC(=O)Nc3ccc(C(N)=O)cc3)C2=O)cc1
Second: CC(=O)O/N=C(\N)c1ccc(-c2csnn2)cc1
The “hERG current change (%, negative = inhibition) at 1uM” value of the first is higher: 11.8% for the first, 5.94% for the second.
